Values joined by “and” are separate entries in the source; they are usually repeats but may differ in a detail not shown here. Equal values may be shown once. This list was built around the results that the source calls inconclusive (neither active nor inactive); the mix of calls is not that of the screen. Potencies of inconclusive entries are doubtful fits and often do not repeat. Active and inactive are the calls of the source. Calls follow the shape of the dose curve; as a rule, active = well fitted activation curve with a large enough effect in the signal ratio in the repeat runs (not every such curve was filed as active); inconclusive = weak or mixed curves; inactive = flat fitted curve, though single readings scatter; the % refers to the signal ratio.
Assay: qHTS assay to identify small molecule agonists of the TGF-beta/Smad signaling pathway (AID 1346859)
Conditions: SBE-bla HEK293T, TGF-beta/Smad beta-lactamase reporter, 5 h; activation: at 76.8 µM (top of the series)
Text: U.S. Tox21 Program National Center for Advancing Translational Sciences [NCATS] NIH Chemical Genomics Center [NCGC] U.S. Environmental Protection Agency [EPA] National Institutes of Environmental Health Sciences [NIEHS] National Toxicology Program [NTP] U.S. Food and Drug Administration [FDA] Tox21 Assay Overview: Transforming growth factor beta (TGF-beta) superfamily consists of a large number of structurally related dimeric proteins that act as hormones or local mediators in regulating a wide range of biological functions. This superfamily includes TGF-betas themselves, the bone morphogenetic proteins (BMPs) and the activins. These ligands induce oligomerization of serine/threonine receptor kinases and phosphorylate the cytoplasmic signaling molecules of Smad protein family. CellSensor SBE-bla HEK 293T cell line (Life Technologies, Carlsbad, CA), responsive to TGF-beta was used to screen Tox21 10K compound library for identification of agonists/antagonists of the Smad signaling pathway. This cell line contains a beta-lactamase reporter gene under control of the Smad binding element (SBE) stably integrated into HEK 293T cells.
Tox21 Assay Protocol Summary: SBE-bla HEK 293T cells were dispensed at 4,000/well in 6 uL of assay medium into black wall/clear-bottom 1536-well plates using a Multidrop Combi (ThermoFisher Scientific, Waltham, MA) dispenser. After the assay plates were incubated at 37 C and 5% CO2 for an overnight, 23 nL of compounds dissolved in DMSO, positive controls or DMSO only was transferred to the assay plate by a Pintool station (Kalypsys, San Diego, CA). The assay plates were incubated at 37 C and 5% CO2 for 5 hr. One uL of LiveBLAzer B/G FRET substrate (Life Technologies) was added using a Flying Reagent Dispenser (Aurora Discovery, San Diego, CA) and the plates were incubated at room temperature for 2 hr. Fluorescence intensity (405 nm excitation, 460 nm and 530 nm emissions) was measured using an Envision plate reader (PerkinElmer, Shelton, CT).
% is scaled to controls: 0 for no effect and ±100 for the full control effect; potency is read from the fitted curve at half-maximal effect; tags tell the direction and shape of the fitted curve or compound fluorescence and quenching.

Row | Structure (SMILES) | Potency | activation
1 | CC(C(=O)O)c1ccc(C(=O)c2ccccc2)s1 (stereo not given) | inconclusive: 9.52 µM [rising, partial curve] | –
2 | CCCOc1ccc(S(=O)(=O)N2CCN(CC)CC2)cc1-c1nc2c(CC)n(Cc3ccccn3)nc2c(=O)[nH]1 | inconclusive: 38.9 µM [rising, partial curve] | –
3 | Oc1ccc(C2(c3ccc(O)c(C4CCCCC4)c3)CCCCC2)cc1C1CCCCC1 | inconclusive: 54.9 µM | –
4 | N#C/C(=C1/SC[C@@H](c2ccc(Cl)cc2Cl)S1)n1ccnc1 | inconclusive: 16.9 µM [rising, partial curve] | –
5 | CC(C)OC(=O)CCC(=O)OC(C)C | inactive | –
6 | C[C@H](N)C(=O)N[C@@H](C)C(=O)NC1[C@H]2CN(c3nc4c(cc3F)c(=O)c(C(=O)O)cn4-c3ccc(F)cc3F)C[C@@H]12 (stereo not given in full) | inconclusive: 12 µM [rising, partial curve] | –
7 | CC(C)(O)CCCC1=CCC(C=O)CC1 (stereo not given) | inactive | –
8 | CCC(C(=O)O)c1ccc(N2Cc3ccccc3C2=O)cc1 (stereo not given) | inconclusive: 1.69 µM [rising, full curve] | –
9 | O=c1[nH]c2ccc(S(=O)CCN3CCC(Cc4ccc(F)cc4)CC3)cc2o1 (stereo not given) | inconclusive: 21.9 µM [rising, partial curve] | –
10 | CC(C)S | inactive | –
11 | CCCc1ccc(O)c(OC)c1 | inactive | –
12 | O=C(CO)[C@@H](O)[C@H](O)[C@H](O)CO | inactive | –
13 | CCOC(=O)COC(=O)c1cc(Oc2ccc(C(F)(F)F)cc2Cl)ccc1[N+](=O)[O-] | inconclusive: 27.5 µM [rising, partial curve] | –
14 | C#C[C@]1(O)CC[C@H]2[C@@H]3CCC4=CC(=O)CC[C@@H]4[C@H]3CC[C@@]21C | inconclusive: 24.5 µM [rising, partial curve] | –
15 | COc1ccc(C(=O)Nc2ccccc2)cc1[N+](=O)[O-] | inconclusive: 22 µM [rising, partial curve, poor fit] | –
16 | O=C(c1ccccc1)C1(O)CCCCC1 | inactive | –
17 | O=C(O)c1cccc(Cl)c1Cl | inactive | –
18 | CCn1nc(Cc2ccccc2)cc1C1CCN(C[C@H]2C[C@H](N(C)[C@@H](C(=O)O)C(C)C)C[C@@H]2c2cccc(F)c2)CC1 | inconclusive: 19.5 µM [rising, partial curve] | –
19 | NCCCN(CCO)CCO | inactive | –
20 | CN(C(=O)CCCOc1ccc2[nH]c(=O)ccc2c1)C1CCCCC1 | inconclusive: 12 µM | –

Row | Structure (SMILES) | Potency | activation
21 | CCCCNC(=O)NS(=O)(=O)c1ccc(C)cc1 | inconclusive: 21.8 µM [falling, partial curve, poor fit] | –
22 | O=C(O)CCCC(=O)O | inactive | –
23 | CCN1CCN(c2cc3c(cc2F)c(=O)c(C(=O)O)cn3C2CC2)CC1 | inconclusive: 10.7 µM [rising, partial curve] | –
24 | O=C(O)CCCC[P+](c1ccccc1)(c1ccccc1)c1ccccc1 | inactive | –
25 | CCC(C)c1cc(C(C)(C)C)c(O)c(C(C)(C)C)c1 (stereo not given) | inactive | –
26 | O=C1OCCO1 | inconclusive: 0.518 µM [rising, partial curve, poor fit] | –
27 | CC(C)C[C@H](NC(=O)OCC1c2ccccc2-c2ccccc21)C(=O)O | inconclusive: 21.9 µM [rising, partial curve] | –
28 | O=C(NCCO[N+](=O)[O-])c1cccnc1 | inconclusive: 3.79 µM [falling, partial curve, poor fit] | –
29 | O=S(=O)(O)c1cccc2ccccc12 | inactive | –
30 | O=C(O)c1ccc2cc(O)ccc2c1 | inactive | –
31 | O=C1CCCC1 | inactive | –
32 | Cc1c(F)cc2c(=O)c(C(=O)O)cn3c2c1CCC3C (stereo not given) | inconclusive: 23.9 µM [rising, partial curve] | –
33 | N#CCc1cccc(C(F)(F)F)c1 | inactive | –
34 | CC(=O)N(c1onc(C)c1C)S(=O)(=O)c1ccc(N)cc1 | inactive | –
35 | COc1cc(NC(=O)CC(C)=O)c(OC)cc1Cl | inconclusive: 1.1 µM [rising, full curve] | –
36 | CCc1ccc(CCOc2ccc(CC3SC(=O)NC3=O)cc2)nc1 (stereo not given) | inconclusive: 13.8 µM [rising, partial curve] and inconclusive: 19 µM [rising, partial curve] | –
37 | CN(C)C(=O)NC1(c2ccccc2)CCN(CCC[C@]2(c3ccc(Cl)c(Cl)c3)CCCN(C(=O)c3ccccc3)C2)CC1 | inconclusive: 10.4 µM [rising, single point] | –
38 | OCCSc1ccccc1 | inactive | –
39 | CC1=C(CC(=O)O)c2cc(F)ccc2/C1=C\c1ccc(S(C)(=O)=O)cc1 | inconclusive: 12 µM [rising, partial curve] | –
40 | CC(=O)OCc1ccco1 | – | inconclusive: 15.5%

Reference: PubChem BioAssay (Tox21)
